Test results reported in article PMC2869303.
These are yes or no findings as the source states them, for the method shown. For part of these data: In cells and extracts the contact can be indirect. Some entries that bind do so weakly or less than the wild type. For part of these data: Tags and fused reporters may be left off the sequences shown.

Protein sequences, listed by entry. Tags and fused reporters are not part of them.
UniProt P49792: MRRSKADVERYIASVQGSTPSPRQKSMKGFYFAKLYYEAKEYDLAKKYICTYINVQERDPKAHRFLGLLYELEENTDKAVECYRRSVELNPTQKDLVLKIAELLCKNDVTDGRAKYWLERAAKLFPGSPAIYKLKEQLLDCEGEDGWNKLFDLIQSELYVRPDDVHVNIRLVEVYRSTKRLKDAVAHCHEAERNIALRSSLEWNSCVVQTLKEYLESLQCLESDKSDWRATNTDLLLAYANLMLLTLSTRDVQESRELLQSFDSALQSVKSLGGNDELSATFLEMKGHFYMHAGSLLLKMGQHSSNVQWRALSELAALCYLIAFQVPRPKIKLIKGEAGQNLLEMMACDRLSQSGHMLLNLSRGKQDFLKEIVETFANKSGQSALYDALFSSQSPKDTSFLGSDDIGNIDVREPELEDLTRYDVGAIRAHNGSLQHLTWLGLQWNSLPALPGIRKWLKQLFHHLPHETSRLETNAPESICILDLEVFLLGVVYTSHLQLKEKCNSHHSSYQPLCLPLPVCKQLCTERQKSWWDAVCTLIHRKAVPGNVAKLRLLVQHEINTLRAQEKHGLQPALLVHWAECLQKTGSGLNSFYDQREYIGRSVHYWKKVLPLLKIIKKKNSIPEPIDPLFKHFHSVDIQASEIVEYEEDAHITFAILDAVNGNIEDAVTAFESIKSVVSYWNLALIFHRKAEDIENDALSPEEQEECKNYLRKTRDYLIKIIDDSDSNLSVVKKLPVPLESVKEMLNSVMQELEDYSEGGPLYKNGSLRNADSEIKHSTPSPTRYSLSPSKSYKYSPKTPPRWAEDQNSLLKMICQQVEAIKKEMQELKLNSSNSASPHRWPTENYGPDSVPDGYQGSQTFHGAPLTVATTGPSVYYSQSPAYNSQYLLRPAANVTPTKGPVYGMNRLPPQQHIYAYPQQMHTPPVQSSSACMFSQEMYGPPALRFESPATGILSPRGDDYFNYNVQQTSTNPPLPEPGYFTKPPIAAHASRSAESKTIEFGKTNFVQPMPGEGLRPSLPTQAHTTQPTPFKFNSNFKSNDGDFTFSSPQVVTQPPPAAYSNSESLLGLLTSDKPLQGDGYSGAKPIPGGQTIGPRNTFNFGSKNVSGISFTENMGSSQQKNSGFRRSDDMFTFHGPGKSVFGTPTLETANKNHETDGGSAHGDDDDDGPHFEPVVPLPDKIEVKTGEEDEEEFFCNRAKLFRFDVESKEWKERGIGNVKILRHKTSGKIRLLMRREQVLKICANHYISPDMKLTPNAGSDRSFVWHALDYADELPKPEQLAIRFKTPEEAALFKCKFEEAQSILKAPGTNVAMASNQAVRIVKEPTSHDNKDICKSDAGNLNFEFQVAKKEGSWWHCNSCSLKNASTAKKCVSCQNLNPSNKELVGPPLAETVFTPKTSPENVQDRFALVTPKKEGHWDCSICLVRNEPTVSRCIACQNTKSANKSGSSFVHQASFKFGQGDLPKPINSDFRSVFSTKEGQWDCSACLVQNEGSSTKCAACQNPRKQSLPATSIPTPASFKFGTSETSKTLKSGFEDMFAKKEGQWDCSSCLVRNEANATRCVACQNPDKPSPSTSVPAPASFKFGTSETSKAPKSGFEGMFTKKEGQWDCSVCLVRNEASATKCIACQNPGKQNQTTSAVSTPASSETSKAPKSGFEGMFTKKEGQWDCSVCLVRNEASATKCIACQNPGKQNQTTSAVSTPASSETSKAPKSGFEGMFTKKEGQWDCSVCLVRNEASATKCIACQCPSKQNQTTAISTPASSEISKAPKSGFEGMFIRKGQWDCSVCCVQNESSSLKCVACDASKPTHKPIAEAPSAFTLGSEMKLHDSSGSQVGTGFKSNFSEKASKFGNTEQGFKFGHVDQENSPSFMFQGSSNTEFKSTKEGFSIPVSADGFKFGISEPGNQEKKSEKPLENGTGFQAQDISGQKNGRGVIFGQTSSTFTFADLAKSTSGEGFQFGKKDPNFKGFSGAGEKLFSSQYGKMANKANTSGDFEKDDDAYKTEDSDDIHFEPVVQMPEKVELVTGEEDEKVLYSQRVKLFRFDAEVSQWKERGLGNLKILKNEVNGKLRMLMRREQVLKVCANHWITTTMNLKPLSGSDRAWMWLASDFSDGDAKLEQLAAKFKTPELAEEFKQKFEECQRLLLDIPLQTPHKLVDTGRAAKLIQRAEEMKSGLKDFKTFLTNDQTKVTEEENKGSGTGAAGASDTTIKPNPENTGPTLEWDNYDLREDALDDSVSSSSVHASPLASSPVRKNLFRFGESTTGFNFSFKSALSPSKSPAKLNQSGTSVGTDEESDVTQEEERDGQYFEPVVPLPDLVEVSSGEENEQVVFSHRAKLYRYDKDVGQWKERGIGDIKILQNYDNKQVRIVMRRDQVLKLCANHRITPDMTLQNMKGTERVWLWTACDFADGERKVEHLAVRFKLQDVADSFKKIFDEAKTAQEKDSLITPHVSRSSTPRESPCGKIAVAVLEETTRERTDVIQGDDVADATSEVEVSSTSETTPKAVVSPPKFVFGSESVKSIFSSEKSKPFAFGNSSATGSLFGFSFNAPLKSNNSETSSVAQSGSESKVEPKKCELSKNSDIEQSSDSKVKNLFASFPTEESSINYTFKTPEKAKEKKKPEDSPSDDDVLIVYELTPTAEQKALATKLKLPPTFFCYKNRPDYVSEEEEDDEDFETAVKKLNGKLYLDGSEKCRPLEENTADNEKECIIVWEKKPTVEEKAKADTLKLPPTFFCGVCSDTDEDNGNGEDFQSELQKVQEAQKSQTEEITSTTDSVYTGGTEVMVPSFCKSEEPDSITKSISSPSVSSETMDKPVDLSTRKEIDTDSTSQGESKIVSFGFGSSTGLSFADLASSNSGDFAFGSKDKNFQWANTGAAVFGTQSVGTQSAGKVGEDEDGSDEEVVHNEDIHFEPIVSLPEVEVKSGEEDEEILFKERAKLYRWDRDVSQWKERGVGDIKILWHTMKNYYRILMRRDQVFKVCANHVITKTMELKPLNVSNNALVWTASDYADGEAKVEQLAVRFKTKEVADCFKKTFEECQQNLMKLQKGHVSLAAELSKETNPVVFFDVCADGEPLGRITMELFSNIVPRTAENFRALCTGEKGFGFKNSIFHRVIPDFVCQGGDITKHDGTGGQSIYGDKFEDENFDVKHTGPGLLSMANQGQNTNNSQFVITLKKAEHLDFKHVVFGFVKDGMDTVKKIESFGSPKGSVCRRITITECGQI
UniProt P37198: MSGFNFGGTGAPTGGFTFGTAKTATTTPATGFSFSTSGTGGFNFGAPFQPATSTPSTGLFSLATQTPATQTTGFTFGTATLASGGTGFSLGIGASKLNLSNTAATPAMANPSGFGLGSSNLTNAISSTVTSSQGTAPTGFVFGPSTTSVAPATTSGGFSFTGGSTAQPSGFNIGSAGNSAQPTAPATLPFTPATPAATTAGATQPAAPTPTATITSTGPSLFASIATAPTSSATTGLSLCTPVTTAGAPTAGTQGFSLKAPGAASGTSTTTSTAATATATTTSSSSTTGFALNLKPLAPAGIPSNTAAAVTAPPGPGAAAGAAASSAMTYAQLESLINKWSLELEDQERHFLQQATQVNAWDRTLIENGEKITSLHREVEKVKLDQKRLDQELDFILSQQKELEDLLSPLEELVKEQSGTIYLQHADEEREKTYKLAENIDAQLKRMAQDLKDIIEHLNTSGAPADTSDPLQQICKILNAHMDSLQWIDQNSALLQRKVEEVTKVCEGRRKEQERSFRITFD
UniProt P49790: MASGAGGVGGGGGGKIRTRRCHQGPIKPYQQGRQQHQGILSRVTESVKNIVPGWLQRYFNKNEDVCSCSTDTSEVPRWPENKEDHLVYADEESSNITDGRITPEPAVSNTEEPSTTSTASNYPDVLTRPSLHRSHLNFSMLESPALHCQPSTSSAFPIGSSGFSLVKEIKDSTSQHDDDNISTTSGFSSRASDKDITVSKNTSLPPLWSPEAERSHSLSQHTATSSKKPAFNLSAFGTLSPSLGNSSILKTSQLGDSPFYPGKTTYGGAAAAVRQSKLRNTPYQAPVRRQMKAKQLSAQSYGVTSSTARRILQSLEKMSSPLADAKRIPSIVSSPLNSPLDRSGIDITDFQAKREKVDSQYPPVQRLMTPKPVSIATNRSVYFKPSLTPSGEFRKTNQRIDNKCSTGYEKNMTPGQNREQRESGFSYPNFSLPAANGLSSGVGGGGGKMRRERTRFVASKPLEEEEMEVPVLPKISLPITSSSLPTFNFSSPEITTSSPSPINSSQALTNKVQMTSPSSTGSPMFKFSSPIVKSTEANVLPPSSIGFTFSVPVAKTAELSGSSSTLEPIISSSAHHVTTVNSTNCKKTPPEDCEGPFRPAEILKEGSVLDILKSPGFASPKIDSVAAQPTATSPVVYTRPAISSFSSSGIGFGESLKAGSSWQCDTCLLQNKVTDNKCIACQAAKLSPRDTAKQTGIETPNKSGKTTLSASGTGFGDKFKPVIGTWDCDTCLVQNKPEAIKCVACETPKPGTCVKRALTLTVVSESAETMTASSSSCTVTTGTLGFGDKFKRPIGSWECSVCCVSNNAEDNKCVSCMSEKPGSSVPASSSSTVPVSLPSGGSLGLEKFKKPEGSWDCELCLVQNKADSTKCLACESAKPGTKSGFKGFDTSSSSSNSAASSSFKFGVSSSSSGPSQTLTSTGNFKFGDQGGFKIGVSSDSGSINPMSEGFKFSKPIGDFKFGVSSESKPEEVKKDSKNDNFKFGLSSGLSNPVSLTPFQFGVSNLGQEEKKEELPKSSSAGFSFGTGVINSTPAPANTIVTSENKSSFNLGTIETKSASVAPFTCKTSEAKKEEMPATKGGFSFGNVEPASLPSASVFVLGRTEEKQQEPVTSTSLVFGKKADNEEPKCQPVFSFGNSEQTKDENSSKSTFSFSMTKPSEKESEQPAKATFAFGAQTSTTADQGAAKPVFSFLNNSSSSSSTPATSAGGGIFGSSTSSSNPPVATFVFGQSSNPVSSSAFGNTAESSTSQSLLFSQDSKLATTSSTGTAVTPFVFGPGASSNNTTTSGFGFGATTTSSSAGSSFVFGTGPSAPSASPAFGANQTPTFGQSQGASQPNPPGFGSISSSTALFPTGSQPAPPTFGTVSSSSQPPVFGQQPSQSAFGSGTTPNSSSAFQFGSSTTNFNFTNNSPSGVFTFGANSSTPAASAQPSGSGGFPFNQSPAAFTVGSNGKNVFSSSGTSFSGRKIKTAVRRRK

Experiments:
[1] = molecular target: T1, NXF1 (human (endogenous in HCT116)) (UniProt Q9UBU9); experiment: co-IP; endogenous proteins from nuclear extracts of HCT116 cells; anti-GANP immunoprecipitation in the presence of RNase A, anti-NXF1 immunoprecipitation; immunoblot for GANP and NXF1
T1 sequence: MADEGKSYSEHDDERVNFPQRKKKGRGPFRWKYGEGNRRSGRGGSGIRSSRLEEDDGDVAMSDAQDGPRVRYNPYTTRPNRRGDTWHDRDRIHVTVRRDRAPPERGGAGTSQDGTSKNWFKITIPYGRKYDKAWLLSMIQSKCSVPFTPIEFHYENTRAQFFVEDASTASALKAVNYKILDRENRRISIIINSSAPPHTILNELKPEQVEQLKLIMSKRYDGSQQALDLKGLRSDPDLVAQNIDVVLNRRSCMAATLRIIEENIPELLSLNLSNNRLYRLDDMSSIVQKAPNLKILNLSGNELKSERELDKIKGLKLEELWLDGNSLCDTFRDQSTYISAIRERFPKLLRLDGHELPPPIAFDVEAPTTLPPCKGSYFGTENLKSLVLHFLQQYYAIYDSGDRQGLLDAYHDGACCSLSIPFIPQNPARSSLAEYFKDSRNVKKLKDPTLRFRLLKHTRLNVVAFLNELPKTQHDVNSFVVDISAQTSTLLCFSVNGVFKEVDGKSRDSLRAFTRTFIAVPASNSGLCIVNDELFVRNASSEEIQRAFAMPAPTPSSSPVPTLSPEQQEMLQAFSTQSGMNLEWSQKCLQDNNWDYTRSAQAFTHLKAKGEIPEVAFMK

[2] = molecular target: Nup358 (human (endogenous in HCT116)) (UniProt P49792); experiment: co-IP; endogenous proteins from cellular extract of HCT116 cells; immunoprecipitation with anti-GANP antibody, mAb414, anti-Nup358 antibody or sheep IgG; blotted for GANP and mAb414
[3] = molecular target: GANP (germinal center-associated nuclear protein) (human (endogenous in HCT116)) (UniProt O60318); experiment: as above
His-NXF1(371-621) = molecular target: T2, His-NXF1(371-621) (UniProt Q9UBU9); experiment: pull-down; His-NXF1(371-621) prebound to Ni-NTA agarose, incubated with GST alone or GST-GANP(1-313) for 2 hr at 4°C; resin washed extensively; SDS-PAGE and Coomassie staining; both purified
T2 sequence: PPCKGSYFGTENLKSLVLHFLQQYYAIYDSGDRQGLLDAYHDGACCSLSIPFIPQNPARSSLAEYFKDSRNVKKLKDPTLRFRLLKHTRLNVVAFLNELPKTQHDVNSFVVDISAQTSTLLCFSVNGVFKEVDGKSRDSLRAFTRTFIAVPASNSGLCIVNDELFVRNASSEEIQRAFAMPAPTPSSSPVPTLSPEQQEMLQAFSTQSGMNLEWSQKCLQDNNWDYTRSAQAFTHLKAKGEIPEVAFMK

## GANP (germinal center-associated nuclear protein) (from UniProt O60318 1-1980)
[1]
  binding: binds
[2]
  binding: binds

## Nup62 (from UniProt P37198 1-522)
[3]
  binding: no binding

## Nup153 (from UniProt P49790 1-1475)
[3]
  binding: binds

## Nup358 (from UniProt P49792 1-3224)
[3]
  binding: binds

B1: GST-GANP(1-313) (domain or fragment, UniProt O60318 1-313)
chain: MNPTNPFSGQQPSAFSASSSNVGTLPSKPPFRFGQPSLFGQNSTLSGKSSGFSQVSSFPASSGVSHSSSVQTLGFTQTSSVGPFSGLEHTSTFVATSGPSSSSVLGNTGFSFKSPTSVGAFPSTSAFGQEAGEIVNSGFGKTEFSFKPLENAVFKPILGAESEPEKTQSQIASGFFTFSHPISSAPGGLAPFSFPQVTSSSATTSNFTFSKPVSSNNSLSAFTPALSNQNVEEEKRGPKSIFGSSNNSFSSFPVSSAVLGEPFQASKAGVRQGCEEAVSQVEPLPSLMKGLKRKEDQDRSPRRHGHEPAEDSD
His-NXF1(371-621)
  binding: binds
